From the supplement of paper PMC11417369
The list shows a part of the results.

Test system: PfSIP2 AP2 domain 1 (GST-tagged)
Assay: gcPBM binding intensity (ln(normalized median fluorescence intensity)); higher = stronger DNA binding
In short: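 GST-tagged P. falciparum DNA-binding domains, expressed in E. coli (about 25 μg on average), were applied for 1 h to an Agilent 4 × 180k array of primer-extended double-stranded 36-bp intergenic genomic probes plus negative controls. The binding buffer was 1× PBS with 1% milk, 0.2 mg/ml BSA, 0.5% salmon testes DNA and 0.03% Triton X-100. Bound protein was detected with Alexa488 anti-GST antibody and scanned at 488 nm. Binding intensity is the highest Masliner-normalised natural-log median intensity across replicate spots of either probe orientation.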

| Sequence | gcPBM binding intensity (ln) |
| --- | --- |
| TAATTTTAAATATCTTCACACATTATATTTTTATAT [CACACA_site5411] | 6.89 |
| TATATAAATAGATACACACATACATACATACATACA [CACACA_site260] | 8.09 |
| TATAATAATACTTATTGTACGATTAGCTTAATTCGT [XGTACX_site15] | 6.71 |
| TTGATATTTTTTTTATGTACACATGTTCATATTTTT [XGTACX_site8095] | 7.06 |
| TCATCTTTTATATGTTGTACGTATTTTCATTTATAT [XGTACX_site4855] | 7.22 |
| ATTTAAAAAAGAAAGGTGCATTTCAATAATGTAAAA [GTGCAC_site9585] | 11 |
| AAGTAGTGTTAATACTGTACTTATATTTTTTATTAT [XGTACX_site8264] | 6.92 |
| TCACATATTATCTTTACACACTATAAATAAGTTTTA [CACACA_site7335] | 7.13 |
| TTTTTTTCTTTTTGAGGTACGCATTATTTTATTTGT [XGTACX_site6996] | 7.07 |
| ATAATTTGATGGTTAACACACATATAGATTATAGAT [CACACA_site7200] | 6.94 |
| TGTTATATTTCAAATTGTACTAATCTAATTAATAAA [XGTACX_site604] | 6.89 |
| TTATTATATATATCTCGTACGTGTATACGCCTACCA [XGTACX_site8375] | 6.69 |
| AAAAAAATGAAACACACACACACATATATATATATA [CACACA_site1043] | 9.36 |
| AAACAATTACACATATGTATGTATATATATATATAT [TGCATGCA_negctrl_site536] | 9.25 |
| ACAAAGTTTATAGAACGTACATACTTACACATATTT [XGTACX_site556] | 6.71 |
| AAAGATTGCGATGGTTGTACTTTTCTATATTTTTTT [XGTACX_site3492] | 6.8 |
| CTAAAATACGAACACACACACACATATAAATAAATA [CACACA_site7872] | 7.13 |
| TATACTTCTTATTAAATGAGTAGTATATATTATATA [TGCATGCA_negctrl_site299] | 6.95 |
| CTATTTCATAAACACACACACACAAACAAACATATA [CACACA_site8234] | 7.31 |
| TTAAAAAATTATTGTAGTACATAGGAAATGAAAAAA [XGTACX_site155] | 7.42 |
| TAAATTAAATATTATAAACACACATATATATTATTT [CACACA_site8189] | 6.82 |
| ATATAAATAAATACAACACACATGTCATATCTAAAT [CACACA_site7533] | 6.97 |

| Sequence | gcPBM binding intensity (ln) |
| --- | --- |
| AAAAAAAAAAAATGAGCACACATAAATAAAAACAAA [CACACA_site8447] | 7.03 |
| TATATACATAAAATTTGTACATATATATATATATAT [XGTACX_site3214] | 9 |
| ATATTATTCTTATATTCACACAGTTTATATTTCCGT [CACACA_site5653] | 7.01 |
| AAATTACATACACGCGCACACACAAAAAAAAAAAAA [CACACA_site1335] | 7.38 |
| TGGCAAAATAGGCACACACACATATACATATATATT [CACACA_site1059] | 7.1 |
| TATATAATTAAAATAACACACATATATAAAAATATA [CACACA_site2990] | 6.94 |
| ATATTATAGTATATAACACACATTTTTCATAACACT [CACACA_site6331] | 7.01 |
| GTATATATATTTCTTTAATAATTAAATTATAAATAT [CACACA_negctrl_site640] | 7.01 |
| TATTATATCTTATATGTATATTCCCACAAATTATAT [GTGCAC_negctrl_site362] | 6.94 |
| AATATATAAACACGTACACACACATATATGTATATA [CACACA_site9168] | 7.39 |
| AATTTAAATATTTGTTGTACGTATTTATATATTCTT [XGTACX_site3623] | 6.94 |
| CATGCCGTTAAATTATGTACTTATTATTTTAATATG [XGTACX_site4209] | 7.03 |
| ATAATATATAAACACACACACATATATAAATACATT [CACACA_site4466] | 7.19 |
| ATTTTTGTTATTACATGTACCCATAATTATTATTAA [XGTACX_site3558] | 7.51 |
| ACCGTGGGAGGACACACACACACACCCACATATATA [CACACA_site4339] | 7.12 |
| TATTTATATTCCTTTACACACTCCATCTTATATCCA [CACACA_site3604] | 7.03 |
| AACAATTATTTGTCGACACACGTATATGTTATTTAG [CACACA_site5046] | 6.87 |
| ACAAAAAAATGAAAAGAAAAAGATATACCCCAATAT [CACACA_negctrl_site509] | 7.14 |
| AAGAGAAATATATATTGTACAATAATTTTATTTGGT [XGTACX_site7642] | 6.95 |
| ATATCCATAATAAAAACATGCAACAGAAAAAAAAAA [TGCATGCA_site497] | 7.14 |
| TATATATTAATATTTACACACATGCGCACCCATAAA [CACACA_site2410] | 12.1 |
| TTCCAAAAAATTATTACACACATATGAGCACATATA [CACACA_site4543] | 6.94 |

| Sequence | gcPBM binding intensity (ln) |
| --- | --- |
| TATTAATTAAAAAAATGTACATAATTATAAATTTTT [XGTACX_site7994] | 6.82 |
| TACGGTTGTTTATTTTGTACGTAAAAAATATATTAT [XGTACX_site8393] | 7.5 |
| TAATATACATATATATGTACATATATATATATATAT [XGTACX_site2684] | 9.16 |
| ACATAATATACTATTGTGCACATATATATATATATA [GTGCAC_site9761] | 9.6 |
| GTTAATTTAATTATATGTACGAAAAAATACGTTATA [XGTACX_site1306] | 7.18 |
| TTTTTATTTTTTTATTTCTTATCAAATAAAATATAT [XGTACX_negctrl_site537] | 6.84 |
| TTACAAAAAGGTAATTTACACACTGCATATAGGAAT [CACACA_site8956] | 7.11 |
| TCTTAATATGGTAATACACACTAATATACTTTTGTT [CACACA_site4969] | 7.02 |
| ACCCTTCAATTTAATTGTACAAGAAAAAAAAAAAAA [XGTACX_site2927] | 7.3 |
| TGCTCAAACTTTACAAATGAACGAATATAAAAAAAG [CACACA_negctrl_site541] | 7.07 |
| AAATAATCATAAAATAAACACACATATATAAATATA [CACACA_site7981] | 6.84 |
| ATTCTTTTTTTTTTCTTATATTCTAATCACCACCTT [XGTACX_negctrl_site179] | 7.25 |
| TAAAATTAAATGAAATCATTATTCATTTTTATTTTA [CACACA_negctrl_site1281] | 6.67 |
| CATATAAATAAACACACACACACATATATATATATA [CACACA_site5309] | 9.47 |
| AATAGGTGCCTTTTTTCACACACATGTCAACTAAAT [CACACA_site8846] | 9.34 |
| TTTGGTAAGCGTGTCGCATGTAGAACAAGTCTACAT [TGCATGCA_site577] | 6.44 |
| ATGAAATTATTATATAAACACACATTTATTTTATTT [CACACA_site8597] | 6.83 |
| AGGAACATTTACGCCCCACACACCTACCAACAAAAA [CACACA_site3827] | 7.25 |
| ATTAAAATGGAGTATTAATATGATATATATATATAT [GTGCAC_negctrl_site509] | 9.32 |
| TAAATACAGACATACACACATACACCCACATATATA [CACACA_site547] | 7.13 |
| TATATATATATTTTTGGTACAGATATTTTCTTCTCT [XGTACX_site4432] | 8.7 |
| TTACAACCATAAAATGCATGTAAATGACAAAAAAAA [TGCATGCA_site944] | 6.81 |

| Sequence | gcPBM binding intensity (ln) |
| --- | --- |
| AATATATATATATATTGTACACACATTTATGCATAT [XGTACX_site6856] | 7.38 |
| ATCATATCCACCAAATGAATAATATAAAATAATATA [XGTACX_negctrl_site193] | 7 |
| AAATAACATAATAAGGGTACATTAATTTCGATAATG [XGTACX_site835] | 6.83 |
| TATATATATATATATGCACACATTTATACAATTTTA [CACACA_site2986] | 9.71 |
| AGAAAAAAAAAAAAAAAACACACGGTACATCCAAAG [CACACA_site124] | 6.79 |
| ATCAAATTATAATCATGTACAAATAAAAAAAAAAAA [XGTACX_site313] | 7 |
| AAATATCTACAAATATGTACATATTTTTTTTGGCTT [XGTACX_site6301] | 6.85 |
| TATTTTGTCATAGAACGTACTTATAAATATTTTTTT [XGTACX_site8424] | 7.01 |
| ATAGAAGCTGTTGACGAAGAAAAAAAAAAAAAAAAA [CACACA_negctrl_site110] | 6.86 |
| TAGATATTTTTGAAAAGTACAAATTTTTAAAAATTA [XGTACX_site4420] | 6.95 |
| TTATATAATGACAAAAAAAAAAAAAAAAAAAAAAAA [CACACA_negctrl_site1467] | 7.05 |
| GTATGATTACAAGAAAGTAGTCCACTTTAACAACAA [CACACA_negctrl_site1304] | 7.07 |
| TAATTTATCCTATAATGTACTTATAAAATATATCAT [XGTACX_site1460] | 6.99 |
| ATGTACATAAACCGCACACATATAAAAAAATAAATA [CACACA_site5571] | 7.47 |
| AGTCCATTTTATTATTGTACATATTAATTTATATCA [XGTACX_site672] | 7.5 |
| ATTCAGAGTATATAAAAATTAATATATACATAATAT [CACACA_negctrl_site1782] | 6.86 |
| ATATATATATAAATATGTACATATATACATATATAC [XGTACX_site2374] | 8.85 |
| AATATTTTGTTATTTATTTAATCTAATATTACTATC [CACACA_negctrl_site4] | 6.67 |
| AAAAAAAAAAAATACACACAAACACAAATTAAATAA [CACACA_site3809] | 7.07 |
| ATTATAGAATATTGAAGTACAAAATTTAAAATAAGT [XGTACX_site1468] | 7.38 |
| TAGGAAAATTACAAAAGTACTTGGCACATAATAATG [XGTACX_site6005] | 6.93 |
